{"source": "patent US20140093592A1", "about": "“[…] THE TREATMENT OF TREATMENT-[…] TREATMENT-RESISTANT DEPRESSION” (Janssen Pharmaceutica NV, priority 2012, published 2014)", "key": {"NMDA receptor": {"system": "NMDA receptor", "details": "S-enantiomer, compared with ketamine; cited from earlier work"}, "[1]": {"system": "adult subjects with treatment-resistant depression (TRD)", "assay": "Treatment Emergent Adverse Events (TEAEs), same clinical study"}, "[2]": {"system": "adult subjects with treatment-resistant depression (TRD)", "assay": "Phase 2a clinical study of i.v. esketamine in TRD: MADRS total score", "details": "for Change from baseline in MADRS total score, LS Mean (SE): day 1 baseline to day 2, MMRM; for Diff. of LS Means (SE) minus placebo, change in MADRS total score / Effect size (MADRS change) vs placebo: day 1 to day 2; for Remission rate: by day 7 (DB phase); for Proportion of responders (MADRS reduction >50% vs baseline): on day 4"}, "[3]": {"system": "adult subjects with treatment-resistant depression (TRD)", "assay": "Brief Psychiatric Rating Scale (BPRS) total score, same clinical study"}}, "data": [{"smiles": "CN[C@]1(c2ccccc2Cl)CCCCC1=O.Cl", "note": "[Esketamine, (S)-2-(2-chlorophenyl)-2-(methylamino)cyclohexanone hydrochloride]", "values": [{"measurement": "Potency or affinity for the NMDA receptor (in words)", "setting": "NMDA receptor", "result": "higher potency or affinity"}, {"measurement": "TEAE dissociation, patients", "setting": "[1]; 0.2 mg/kg", "result": 8.3, "unit": "%"}, {"measurement": "TEAE headache, patients", "setting": "[1]; 0.2 mg/kg", "result": 16.7, "unit": "%"}, {"measurement": "TEAE nausea, patients", "setting": "[1]; 0.2 mg/kg", "result": 25, "unit": "%"}, {"measurement": "TEAE dissociation, patients", "setting": "[1]; 0.4 mg/kg", "result": 16.7, "unit": "%"}, {"measurement": "TEAE headache, patients", "setting": "[1]; 0.4 mg/kg", "result": 23.3, "unit": "%"}, {"measurement": "TEAE nausea, patients", "setting": "[1]; 0.4 mg/kg", "result": 10, "unit": "%"}, {"measurement": "Tolerability (in words)", "setting": "[1]; both doses of IV esketamine", "result": "generally well-tolerated"}, {"measurement": "Non-responders to 0.2 mg/kg that responded to 0.4 mg/kg", "setting": "[2]; 0.2 mg/kg Day 1, 0.4 mg/kg Day 4, hydrochloride", "result": "2 of 3 and Two out of 3"}, {"measurement": "MADRS total score, Mean (SD)", "setting": "[2]; 0.2 mg/kg i.v., Baseline (Day 1 Predose)", "result": "33.1 (3.55)"}, {"measurement": "MADRS total score, Mean (SD)", "setting": "[2]; 0.2 mg/kg i.v., Day 2", "result": "16.3 (8.87)"}, {"measurement": "Change from baseline in MADRS total score, LS Mean (SE)", "setting": "[2]; 0.2 mg/kg i.v.", "result": "−16.8 (3.00)"}, {"measurement": "Diff. of LS Means (SE) minus placebo, change in MADRS total score", "setting": "[2]; 0.2 mg/kg i.v.", "result": "−12.9 (3.76)"}, {"measurement": "Effect size (MADRS change) vs placebo", "setting": "[2]; 0.2 mg/kg vs placebo", "result": "−1.54"}, {"measurement": "MADRS total score, Mean (SE)", "setting": "[2]; 0.20 mg/kg, Day 1 (2 Hour)", "result": "20.44 (2.973)"}, {"measurement": "MADRS total score, Mean (SE)", "setting": "[2]; 0.20 mg/kg, Day 1 (4 Hour)", "result": "16.00 (2.901)"}, {"measurement": "MADRS total score, Mean (SE)", "setting": "[2]; 0.20 mg/kg, Day 1 (Predose)", "result": "33.11 (1.184)"}, {"measurement": "MADRS total score, Mean (SE)", "setting": "[2]; 0.20 mg/kg, Day 2", "result": "16.33 (2.958)"}, {"measurement": "MADRS total score, Mean (SE)", "setting": "[2]; 0.20 mg/kg, Day 3", "result": "16.78 (3.455)"}, {"measurement": "MADRS total score, Mean (SE)", "setting": "[2]; 0.20 mg/kg, Day 4 (2 Hour)", "result": "11.00 (2.734)"}, {"measurement": "MADRS total score, Mean (SE)", "setting": "[2]; 0.20 mg/kg, Day 4 (4 Hour)", "result": "11.00 (3.082)"}, {"measurement": "MADRS total score, Mean (SE)", "setting": "[2]; 0.20 mg/kg, Day 4 (Predose)", "result": "18.89 (3.470)"}, {"measurement": "MADRS total score, Mean (SE)", "setting": "[2]; 0.20 mg/kg, Day 5", "result": "11.67 (2.814)"}, {"measurement": "MADRS total score, Mean (SE)", "setting": "[2]; 0.20 mg/kg, Day 6", "result": "11.33 (3.559)"}, {"measurement": "MADRS total score, Mean (SE)", "setting": "[2]; 0.20 mg/kg, Day 7", "result": "11.67 (4.295)"}, {"measurement": "Remission rate", "setting": "[2]; 0.2 mg/kg", "result": 33.3, "unit": "%"}, {"measurement": "Proportion of responders (MADRS reduction >50% vs baseline)", "setting": "[2]; 0.2 mg/kg", "result": 66.7, "unit": "%"}, {"measurement": "MADRS total score, Mean (SE)", "setting": "[2]; 0.40 mg/kg column (most subjects 0.4 mg/kg, one 0.8, two 0.2), Day 10", "result": "11.66 (2.085)"}, {"measurement": "MADRS total score, Mean (SE)", "setting": "[2]; 0.40 mg/kg column (most subjects 0.4 mg/kg, one 0.8, two 0.2), Day 14", "result": "11.24 (1.900)"}, {"measurement": "MADRS total score, Mean (SE)", "setting": "[2]; 0.40 mg/kg column (most subjects 0.4 mg/kg, one 0.8, two 0.2), Day 17", "result": "11.74 (1.985)"}, {"measurement": "MADRS total score, Mean (SE)", "setting": "[2]; 0.40 mg/kg column (most subjects 0.4 mg/kg, one 0.8, two 0.2), Day 21", "result": "13.14 (2.000)"}, {"measurement": "MADRS total score, Mean (SE)", "setting": "[2]; 0.40 mg/kg column (most subjects 0.4 mg/kg, one 0.8, two 0.2), Day 28", "result": "11.50 (2.217)"}, {"measurement": "MADRS total score, Mean (SE)", "setting": "[2]; 0.40 mg/kg column (most subjects 0.4 mg/kg, one 0.8, two 0.2), Day 35", "result": "13.59 (2.547)"}, {"measurement": "MADRS total score, Mean (SD)", "setting": "[2]; 0.4 mg/kg i.v., Baseline (Day 1 Predose)", "result": "33.7 (5.82)"}, {"measurement": "MADRS total score, Mean (SD)", "setting": "[2]; 0.4 mg/kg i.v., Day 2", "result": "15.9 (9.12)"}, {"measurement": "Change from baseline in MADRS total score, LS Mean (SE)", "setting": "[2]; 0.4 mg/kg i.v.", "result": "−16.9 (2.61)"}, {"measurement": "Diff. of LS Means (SE) minus placebo, change in MADRS total score", "setting": "[2]; 0.4 mg/kg i.v.", "result": "−13.1 (3.64)"}, {"measurement": "Effect size (MADRS change) vs placebo", "setting": "[2]; 0.4 mg/kg vs placebo", "result": "−1.70"}, {"measurement": "MADRS total score, Mean (SE)", "setting": "[2]; 0.40 mg/kg, Day 1 (2 Hour)", "result": "14.91 (2.380)"}, {"measurement": "MADRS total score, Mean (SE)", "setting": "[2]; 0.40 mg/kg, Day 1 (4 Hour)", "result": "15.73 (2.461)"}, {"measurement": "MADRS total score, Mean (SE)", "setting": "[2]; 0.40 mg/kg, Day 1 (Predose)", "result": "33.73 (1.753)"}, {"measurement": "MADRS total score, Mean (SE)", "setting": "[2]; 0.40 mg/kg, Day 2", "result": "15.91 (2.748)"}, {"measurement": "MADRS total score, Mean (SE)", "setting": "[2]; 0.40 mg/kg, Day 3", "result": "19.45 (3.326)"}, {"measurement": "MADRS total score, Mean (SE)", "setting": "[2]; 0.40 mg/kg, Day 4 (2 Hour)", "result": "16.25 (2.151)"}, {"measurement": "MADRS total score, Mean (SE)", "setting": "[2]; 0.40 mg/kg, Day 4 (4 Hour)", "result": "15.75 (2.161)"}, {"measurement": "MADRS total score, Mean (SE)", "setting": "[2]; 0.40 mg/kg, Day 4 (Predose)", "result": "19.64 (3.834)"}, {"measurement": "MADRS total score, Mean (SE)", "setting": "[2]; 0.40 mg/kg, Day 5", "result": "14.45 (2.261)"}, {"measurement": "MADRS total score, Mean (SE)", "setting": "[2]; 0.40 mg/kg, Day 6", "result": "12.68 (2.151)"}, {"measurement": "MADRS total score, Mean (SE)", "setting": "[2]; 0.40 mg/kg, Day 7", "result": "14.75 (2.533)"}, {"measurement": "Remission rate", "setting": "[2]; 0.4 mg/kg", "result": 27.3, "unit": "%"}, {"measurement": "Proportion of responders (MADRS reduction >50% vs baseline)", "setting": "[2]; 0.4 mg/kg", "result": 63.6, "unit": "%"}, {"measurement": "Duration over which the response was maintained", "setting": "[2]; both doses IV, study duration", "result": 35, "unit": "days"}, {"measurement": "Onset of antidepressant effects (MADRS) after the infusion", "setting": "[2]; both doses, earliest time point measured", "result": "≤ 2", "unit": "h"}, {"measurement": "Remitters (MADRS score less than or equal to 10)", "setting": "[2]; day 7, 14 of 29 subjects, all doses", "result": 48.3, "unit": "%"}, {"measurement": "BPRS total score, Mean (SE)", "setting": "[3]; 0.20 mg/kg, Day 1 (2 Hour)", "result": "0.22 (0.222)"}, {"measurement": "BPRS total score, Mean (SE)", "setting": "[3]; 0.20 mg/kg, Day 1 (4 Hour)", "result": "0.00 (0.000)"}, {"measurement": "BPRS total score, Mean (SE)", "setting": "[3]; 0.20 mg/kg, Day 1 (15 Min.)", "result": "1.11 (0.611)"}, {"measurement": "BPRS total score, Mean (SE)", "setting": "[3]; 0.20 mg/kg, Day 1 (30 Min.)", "result": "1.67 (0.799)"}, {"measurement": "BPRS total score, Mean (SE)", "setting": "[3]; 0.20 mg/kg, Day 1 (40 Min.)", "result": "1.67 (0.957)"}, {"measurement": "BPRS total score, Mean (SE)", "setting": "[3]; 0.20 mg/kg, Day 1 (Predose)", "result": "0.11 (0.111)"}, {"measurement": "BPRS total score, Mean (SE)", "setting": "[3]; 0.20 mg/kg, Day 2", "result": "0.00 (0.000)"}, {"measurement": "BPRS total score, Mean (SE)", "setting": "[3]; 0.20 mg/kg, Day 4 (2 Hour)", "result": "0.00 (0.000)"}, {"measurement": "BPRS total score, Mean (SE)", "setting": "[3]; 0.20 mg/kg, Day 4 (4 Hour)", "result": "0.00 (0.000)"}, {"measurement": "BPRS total score, Mean (SE)", "setting": "[3]; 0.20 mg/kg, Day 4 (15 Min.)", "result": "0.22 (0.222)"}, {"measurement": "BPRS total score, Mean (SE)", "setting": "[3]; 0.20 mg/kg, Day 4 (30 Min.)", "result": "0.89 (0.588)"}, {"measurement": "BPRS total score, Mean (SE)", "setting": "[3]; 0.20 mg/kg, Day 4 (40 Min.)", "result": "0.89 (0.588)"}, {"measurement": "BPRS total score, Mean (SE)", "setting": "[3]; 0.20 mg/kg, Day 4 (Predose)", "result": "0.00 (0.000)"}, {"measurement": "BPRS total score, Mean (SE)", "setting": "[3]; 0.20 mg/kg, Day 5", "result": "0.00 (0.000)"}, {"measurement": "BPRS total score, Mean (SE)", "setting": "[3]; 0.40 mg/kg, Day 1 (2 Hour)", "result": "0.00 (0.000)"}]}]}
